Laboratory results: PubChem BioAssay AID720708 (National Center for Advancing Translational Sciences (NCATS), 2013)
In all, about 360,000 compounds went through this assay and about 660 (0.18%) were called active. This list was built around the results that the source calls inconclusive (neither active nor inactive); the mix of calls is not that of the screen. Calls come from the whole dose curve; as a rule, active = well fitted inhibition curve with a large enough effect; inconclusive = small, poorly fitted or top-dose-only effect; inactive = no such curve, though single readings can be large or run the other way. No potency is given beside an inconclusive call; the fits are too rough.

Target: Rap guanine nucleotide exchange factor 4 (Homo sapiens) (UniProt Q8WZA2)
Assay: qHTS for Antagonist of cAMP-regulated guanine nucleotide exchange factor 2 (EPAC2): primary screen; note: nearly all actives have a fitted effect of over 45% in size
Conditions: EPAC2 GEF exchange of Rap1B-BODIPY-GDP, fluorescence; activity, negative = inhibition: at 114 µM (top of the series) unless noted
% is set by controls: 0 for no effect and ±100 for the full control effect; potency is the fitted concentration of half-maximal effect; tags give direction and shape of the fitted curve.

Sequence of UniProt Q8WZA2 (Q8WZA2 whole entry, looked up): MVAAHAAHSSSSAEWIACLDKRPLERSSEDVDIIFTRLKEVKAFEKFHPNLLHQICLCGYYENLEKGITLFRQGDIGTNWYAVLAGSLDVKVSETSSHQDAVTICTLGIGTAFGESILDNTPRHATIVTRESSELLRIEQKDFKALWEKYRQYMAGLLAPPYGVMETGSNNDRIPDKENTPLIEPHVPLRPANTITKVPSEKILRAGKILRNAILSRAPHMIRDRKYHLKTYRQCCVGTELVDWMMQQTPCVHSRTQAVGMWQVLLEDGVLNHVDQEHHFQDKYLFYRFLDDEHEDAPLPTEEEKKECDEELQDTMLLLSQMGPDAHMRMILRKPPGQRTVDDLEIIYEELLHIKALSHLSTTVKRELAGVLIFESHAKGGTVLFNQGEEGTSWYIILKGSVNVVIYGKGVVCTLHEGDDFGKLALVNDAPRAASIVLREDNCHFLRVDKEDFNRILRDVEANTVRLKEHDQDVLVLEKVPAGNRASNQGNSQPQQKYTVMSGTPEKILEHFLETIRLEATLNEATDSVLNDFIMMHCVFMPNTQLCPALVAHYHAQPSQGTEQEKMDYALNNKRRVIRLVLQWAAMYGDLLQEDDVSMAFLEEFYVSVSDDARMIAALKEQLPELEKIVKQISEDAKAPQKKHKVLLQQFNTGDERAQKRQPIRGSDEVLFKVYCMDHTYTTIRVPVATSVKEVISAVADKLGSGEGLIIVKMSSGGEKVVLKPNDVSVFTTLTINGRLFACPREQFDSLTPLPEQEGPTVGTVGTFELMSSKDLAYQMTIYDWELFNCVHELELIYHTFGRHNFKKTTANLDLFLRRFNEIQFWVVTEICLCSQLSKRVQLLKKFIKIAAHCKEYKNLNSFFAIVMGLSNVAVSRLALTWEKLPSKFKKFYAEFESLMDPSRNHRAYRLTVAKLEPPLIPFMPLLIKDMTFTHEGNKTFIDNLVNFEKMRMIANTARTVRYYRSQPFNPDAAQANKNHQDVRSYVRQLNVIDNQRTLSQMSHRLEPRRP

Structure (SMILES) | Potency | activity, negative = inhibition
CCCCC[C@@H](C)N1C[C@H](COCc2ccccc2)Oc2cc(N3CC[C@H](N(C)C)C3)ccc2S1(=O)=O | inconclusive [inhibitor, partial curve, poor fit] | –
CC(=O)NC(c1ccc(Cl)cc1)c1ccc2cccnc2c1O (stereo not drawn) | active: 20 µM | –
C=CCN(C(=O)CN1CCCCC1)c1nc(-c2ccccc2)cs1 | inconclusive [inhibitor, single point] | –
CC(=O)Nc1ccc(C(=O)COC(=O)c2nc3nc(C)cc(C)n3n2)cc1 | – | inactive: 5.24%
C=CCN1C(=O)N(CC=C)c2cccc3cccc1c23 | inconclusive [inhibitor, partial curve] | –
COc1ccc(C(C#N)=Cc2ccc(OC)c(OC)c2)cc1 | inconclusive [inhibitor, full curve] | –
C[C@H]1CN=C(Nc2ccccc2)N1CCCC1CCCCC1 | inconclusive [inhibitor, full curve, poor fit] | –
Oc1ccc(Br)cc1/C=N/n1c(C2CCCCC2)n[nH]c1=S | – | inactive: -12.4%
Cc1ccc(S(=O)(=O)/N=C2\C=C(Nc3cccc(C(=O)O)c3)C(=O)c3ccccc32)cc1 | inconclusive [inhibitor, single point] | –
CC1(C)Cc2nc3oc4c(NCc5ccccc5)ncnc4c3cc2CO1 | inconclusive [inhibitor, full curve, poor fit] | –
COC(=O)c1onc(-c2c(C)cc(C)cc2C)c1C(=O)OC | inconclusive [inhibitor, full curve] | –
O=C1NC(=S)NC1=Cc1ccco1 | – | inactive: -26.1%
Cc1ccc2oc(=O)n(CCOc3ccccc3Cl)c2c1 | – | inconclusive: -19.1% [inhibitor]
CCCCOc1ccc(-c2nnn(CC(=O)Nc3ncc(CC(=O)OCC)s3)n2)cc1 | inconclusive [inhibitor, partial curve] | –
Cc1ccc(/C=C2/SC(=O)NC2=S)o1 | – | inactive: -22.7%
CCOC(=O)c1ccc(Oc2nc(OC)cc(OC)n2)cc1 | inconclusive [inhibitor, partial curve] | –
c1ccc(CC(Nc2ccccn2)c2ccccc2)cc1 (stereo not drawn) | inconclusive [inhibitor, partial curve] | –
C=CCOc1ccc2c3c(c(=O)oc2c1)CCCC3 | inconclusive [inhibitor, partial curve] | –
O=c1cc(CSc2ccc(Cl)cc2)[nH]c2[nH]n(-c3ccccc3)c(=O)c12 | – | inactive: -24.6%
Cc1c(C(=O)N2CCC2)oc2ccc(Br)cc12 | inconclusive [inhibitor, partial curve] | –
O=CN(CCN(C=O)CN1CCCCC1)CN1CCCCC1 | inconclusive [inhibitor, single point] | –
CCOC(=O)[C@@H]1[C@H]2COc3cc(OC)ccc3[C@@H]2N2C(=O)N(c3ccc(OC)cc3)C(=O)[C@]12C | inconclusive [inhibitor, partial curve] | –

Structure (SMILES) | Potency | activity, negative = inhibition
COc1ccccc1CN(C)C(=O)C(c1ccccc1)c1ccccc1 | inconclusive [inhibitor, partial curve] | –
COC(=O)c1sc(-c2ccc(C(C)(C)C)cc2)cc1NC(=O)c1ccccc1C(=O)O | – | inactive: -8.73%
CC(C)c1c(O)ccc2c1CC[C@H]1C(C)(C)CCC[C@]21C | inconclusive [inhibitor, partial curve] | –
CC(C)(C)c1cc(NCCCn2ccnc2)n2ncc(-c3ccccc3)c2n1 | inconclusive [inhibitor, partial curve, poor fit] | –
Clc1ccc(-c2n[nH]c3c2CCCC3)cc1 | inconclusive [inhibitor, single point] | –
COC(=O)c1sc(NC(=O)COc2ccccc2)nc1C | inconclusive [inhibitor, single point] | –
CCCCC(=O)N(C)c1c(CC)nc2c(OCc3ccc(S(C)(=O)=O)cc3)cccn12 | inconclusive [inhibitor, single point] | –
Cc1ccc(C(=O)Nc2ccccc2N2CCCCC2)o1 | inconclusive [inhibitor, partial curve] | –
O=C1NCCN(Cc2cccc(Oc3ccccc3)c2)C1CC(=O)N1CCCCC1 (stereo not drawn) | – | inactive: 5.7%
Cc1cc(C)c2nc(C(F)(F)F)nc(N3CC(C)OC(C)C3)c2c1 (stereo not drawn) | active: 10 µM | –
O=S(=O)(Nc1cccc(-c2ccc(N3CCOCC3)nn2)c1)c1ccc(Cl)c(Cl)c1 | – | inactive: -13.3%
CCN1C(=O)/C(=C\c2ccc(-c3ccc([N+](=O)[O-])cc3OC)o2)SC1=Nc1cccc(C(=O)O)c1 | inconclusive [inhibitor, full curve, poor fit] | –
COc1cc(OC)c2c(-c3ccccc3)cc(=O)oc2c1 | inconclusive [inhibitor, full curve, poor fit] | –
COc1cccc(C(=O)C2=NN(C(C)=O)CC2c2ccco2)c1 (stereo not drawn) | inconclusive [inhibitor, partial curve] | –
Fc1cccc(Cl)c1Cn1ncc2ccccc21 | inconclusive [inhibitor, partial curve] | –
CC1(C(=O)NCc2ccco2)Cc2c(-c3ccc4c(c3)OCO4)ccnc2O1 (stereo not drawn) | – | inactive: -0.756%
CCOc1ccccc1C(=O)OCC(=O)Nc1cc(Cl)ccc1Oc1ccccc1 | inconclusive [inhibitor, full curve] | –
Cc1noc(NS(=O)(=O)c2ccc(N/C=C\C(=O)c3ccc(Br)cc3)cc2)c1C | inconclusive [inhibitor, partial curve] | –
CN(C(=O)c1ccc(=O)n(Cc2ccc(Cl)cc2)c1)c1ccccc1 | inconclusive [inhibitor, partial curve] | –
C[C@@H](OC(=O)c1[nH]cnc1C(=O)N1CCc2ccccc2C1)c1ccccc1 | inconclusive [inhibitor, single point] | –
COc1cccc(N(C(=O)c2ccco2)C(C(=O)NC2CCCC2)c2cccnc2)c1 (stereo not drawn) | inconclusive [inhibitor, single point] | –
